Measurements from PubChem BioAssay AID504339 (National Center for Advancing Translational Sciences (NCATS), 2011).
In all, about 390,000 compounds went through this assay and about 17,000 (4.4%) were called active. Inconclusive results, whose numbers are uncertain, are shown with a selection of clear calls. Calls follow the shape of the dose curve; as a rule, active = well fitted inhibition curve with a large enough effect; inconclusive = small, poorly fitted or top-dose-only effect; inactive = no such curve, though single readings can be large or run the other way. Where the call is inconclusive, the potency comes from a doubtful curve fit.

molecular target: Lysine-specific demethylase 4A (Homo sapiens) (UniProt O75164); assay: qHTS Assay for Inhibitors of JMJD2A-Tudor Domain; conditions: AlphaScreen JMJD2A-Tudor / H3K4me3 peptide binding; series mostly up to 114 µM; also: nearly all actives have a fitted effect of over 50% in size
Sequence of UniProt O75164 (O75164 whole entry, looked up, the tested form may be a part): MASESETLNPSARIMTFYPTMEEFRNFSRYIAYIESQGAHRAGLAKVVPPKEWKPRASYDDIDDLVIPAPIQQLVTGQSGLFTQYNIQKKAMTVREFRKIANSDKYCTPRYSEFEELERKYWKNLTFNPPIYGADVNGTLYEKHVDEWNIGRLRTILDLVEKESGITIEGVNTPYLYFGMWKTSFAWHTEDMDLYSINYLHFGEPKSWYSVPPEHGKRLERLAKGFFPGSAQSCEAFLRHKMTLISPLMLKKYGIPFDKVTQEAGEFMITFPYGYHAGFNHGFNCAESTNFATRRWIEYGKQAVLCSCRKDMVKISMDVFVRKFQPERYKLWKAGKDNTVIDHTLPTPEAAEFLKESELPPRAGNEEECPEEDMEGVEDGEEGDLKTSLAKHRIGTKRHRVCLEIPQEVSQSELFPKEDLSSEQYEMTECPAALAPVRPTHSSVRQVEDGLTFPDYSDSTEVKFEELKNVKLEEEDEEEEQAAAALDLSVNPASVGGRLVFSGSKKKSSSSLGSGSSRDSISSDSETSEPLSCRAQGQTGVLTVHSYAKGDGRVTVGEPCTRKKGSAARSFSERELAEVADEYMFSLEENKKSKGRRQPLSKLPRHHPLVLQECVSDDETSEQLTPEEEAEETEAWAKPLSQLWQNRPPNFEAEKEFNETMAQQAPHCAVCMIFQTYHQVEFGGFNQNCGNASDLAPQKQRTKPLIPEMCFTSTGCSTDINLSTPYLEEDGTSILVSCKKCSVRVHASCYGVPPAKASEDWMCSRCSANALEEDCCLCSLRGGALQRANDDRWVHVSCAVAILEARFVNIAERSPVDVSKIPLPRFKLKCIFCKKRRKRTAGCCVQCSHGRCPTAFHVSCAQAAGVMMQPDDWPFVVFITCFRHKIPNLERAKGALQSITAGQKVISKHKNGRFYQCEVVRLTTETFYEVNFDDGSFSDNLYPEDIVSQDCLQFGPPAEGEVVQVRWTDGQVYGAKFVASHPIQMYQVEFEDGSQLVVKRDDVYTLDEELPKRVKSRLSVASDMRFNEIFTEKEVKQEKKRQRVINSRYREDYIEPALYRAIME
Potency is read from the fitted curve at half-maximal effect; tags tell the direction and shape of the fitted curve.

Potency, inactive:
C/C(=N/N=C1/NC(=O)CC(C(=O)Nc2ccccc2)S1)c1cccs1 (centres undefined)
Cc1cccc(-c2c3c(=O)n(C)c(=O)n(C)c3c3c(C)nc4ccccc4n23)c1
Cc1ccccc1-c1csc2ncnc(Sc3nnnn3C)c12
CC1CCN(C(=O)Cn2c(=O)n(CCCCCC(=O)NCc3ccccc3Cl)c(=O)c3sccc32)CC1
O=C(O)c1cc([N+](=O)[O-])cc([N+](=O)[O-])c1N1CCN(c2cccc(C(F)(F)F)c2)CC1
O=C(O)c1ccccc1C(=O)c1ccc2c(c1)N(Cc1ccc(Cl)c(Cl)c1)C(=O)CO2
CCN(C(=O)Cn1c(=O)n(CCCS(=O)(=O)C2CCCCC2)c(=O)c2ccccc21)c1cccc(C)c1
CCn1c(CN2CCOCC2)nc2cc(NC(=O)c3ccccc3[N+](=O)[O-])ccc21

Potency, inconclusive:
CCOc1ccc(C(=O)Nc2nnc(C3=COCCO3)o2)cc1 25.1 µM [inhibitor, full curve]
Cc1ccc2onc(CC(=O)N3CCN(c4ccc(F)cc4)CC3)c2c1 50.1 µM [inhibitor, partial curve]
S=C(Nc1ccc(Cl)cc1)c1nc2ccccc2s1 3.16 µM [inhibitor, full curve, poor fit]
COc1ccc(N(CC(=O)NCC(C)C)S(=O)(=O)c2ccccc2)cc1 25.1 µM [inhibitor, full curve]
COc1cccc(-n2c(-c3ccccc3)c[nH]c2=S)c1 39.8 µM [inhibitor, partial curve]
c1csc(Cc2nn3c(-c4ccncc4)nnc3s2)c1 50.1 µM [inhibitor, partial curve]
C/C=C/C(=O)Nc1cccc(C2=NOC3(C2)C[C@@H](C(N)=O)N(C(=O)C(c2ccccc2)c2ccccc2)C3)c1 (some centres undefined) 89.1 µM [inhibitor, partial curve]
CCN(CC)c1ccc(NC(=O)OC)cc1 63.1 µM [inhibitor, partial curve, poor fit]
O=[N+]([O-])c1cccc(/C=N/NC2=NS(=O)(=O)c3ccccc32)c1 39.8 µM [inhibitor, full curve, poor fit]
Cc1ccccc1NC(=O)N1CCN(S(=O)(=O)c2ccccc2)CC1 12.6 µM [inhibitor, full curve]
CCn1cc(C(=O)O)c(=O)c2cnc(N3CCN(C(=S)Nc4ccccc4C(F)(F)F)CC3)nc21 31.6 µM [inhibitor, single point]
CC(/C=C/c1ccco1)=N\NC(=O)CNc1ccc2ccccc2c1 44.7 µM [inhibitor, partial curve]
COc1ccc(-c2nc(C#N)c(N3CCCCC3)o2)cc1 50.1 µM [inhibitor, partial curve]
CN(C)CCNC(=O)c1ccc(Sc2ccc(Br)cc2)c([N+](=O)[O-])c1 28.2 µM [inhibitor, partial curve]
C=CCNc1nc(C(=O)OCC(=O)Nc2cccc(SC)c2)cs1 25.1 µM [inhibitor, single point]
Cc1cccc(S(=O)(=O)Nc2ccc(-c3cn4ccccc4n3)cc2)c1 79.4 µM [inhibitor, partial curve]
O=C([O-])c1cc(-c2ccccc2)cc(-c2ccccc2)[n+]1CCc1ccc(Cl)cc1 63.1 µM [inhibitor, partial curve, poor fit]
Cc1cccc(CN2C(=O)[C@@H]3Cc4c([nH]c5ccccc45)C(C)(C)N3C2=O)c1 50.1 µM [inhibitor, partial curve]
O=C(CSc1nc(-c2ccccc2)c(-c2ccccc2)[nH]1)N1CCN(S(=O)(=O)c2ccccc2)CC1 28.2 µM [inhibitor, full curve, poor fit]
Cc1ccc(SCc2cc(=O)[nH]c(Nc3nc(C)c4ccccc4n3)n2)cc1 22.4 µM [inhibitor, partial curve]
CC/C(=N\Nc1ccc([N+](=O)[O-])cc1)c1ccccc1 25.1 µM [inhibitor, single point]
Cc1cccc(OCC(=O)Nc2cc(NC(=O)COc3cccc(C)c3C)cc(C(=O)O)c2)c1C 56.2 µM [inhibitor, partial curve]
CCC1CN(C(=O)N2CCC(C(=O)NCCc3cc(OC)ccc3OC)CC2)c2ccccc2O1 (centres undefined) 89.1 µM [inhibitor, partial curve]
COC(=O)c1sccc1-c1ccc(C(=O)Nc2cccc(Cl)c2)o1 50.1 µM [inhibitor, partial curve]
COc1ccc(C(=O)COC(=O)CN2C(=O)C3CC=CCC3C2=O)c(OC)c1 (centres undefined) 89.1 µM [inhibitor, partial curve, poor fit]

Potency, active:
C=CCN(CC=C)CCOc1cccc2ccccc12 20 µM
COc1cccc(CN2CCSCC2)c1OC 20 µM
Cc1nn2c(=S)[nH]nc2[nH]c1=O 28.2 µM
COc1ccc(CCNCc2ccccc2N2CCCC2)cc1 20 µM
CCCCC[C@H](O)/C=C/[C@@H]1[C@@H](C/C=C\CCCC(=O)OC)[C@@H](O)C[C@H]1O 22.4 µM
Cc1ccc(C)c(C(=O)CSc2n[nH]c(-c3ccncc3)n2)c1 89.1 µM
CC(=O)N1CCc2cc(S(=O)(=O)Nc3cccc(C(F)(F)F)c3)ccc21 89.1 µM
Cc1ccsc1/C=N/n1c(-c2ccccn2)n[nH]c1=S 3.16 µM
Cc1[nH]n(-c2ccccc2)c(=O)c1C(c1cc(Cl)ccc1O)c1c(C)[nH]n(-c2ccccc2)c1=O 44.7 µM
CCOC(=O)C1CCN(Cc2nc3ccc(Cl)cc3n2CCO)CC1 1.12 µM
CC(CN1CCCCC1)c1ccccc1 (centres undefined) 3.98 µM
